The campaign covered roughly 310,000 compounds. About 14,000 (4.5%) showed an effect of 50% or more. The effect is printed as a negative number. The list shows a part of the results.
Each compound was assayed against human ether-à-go-go-related gene (hERG) potassium channel (human, UniProt Q12809) (assay: primary screen, population patch clamp on CHO cells stably expressing hERG).
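Note: peak tail current of the secondary pulse compared with the same well before compound.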

human ether-à-go-go-related gene (hERG) potassium channel, sequence (Q12809 whole entry, looked up): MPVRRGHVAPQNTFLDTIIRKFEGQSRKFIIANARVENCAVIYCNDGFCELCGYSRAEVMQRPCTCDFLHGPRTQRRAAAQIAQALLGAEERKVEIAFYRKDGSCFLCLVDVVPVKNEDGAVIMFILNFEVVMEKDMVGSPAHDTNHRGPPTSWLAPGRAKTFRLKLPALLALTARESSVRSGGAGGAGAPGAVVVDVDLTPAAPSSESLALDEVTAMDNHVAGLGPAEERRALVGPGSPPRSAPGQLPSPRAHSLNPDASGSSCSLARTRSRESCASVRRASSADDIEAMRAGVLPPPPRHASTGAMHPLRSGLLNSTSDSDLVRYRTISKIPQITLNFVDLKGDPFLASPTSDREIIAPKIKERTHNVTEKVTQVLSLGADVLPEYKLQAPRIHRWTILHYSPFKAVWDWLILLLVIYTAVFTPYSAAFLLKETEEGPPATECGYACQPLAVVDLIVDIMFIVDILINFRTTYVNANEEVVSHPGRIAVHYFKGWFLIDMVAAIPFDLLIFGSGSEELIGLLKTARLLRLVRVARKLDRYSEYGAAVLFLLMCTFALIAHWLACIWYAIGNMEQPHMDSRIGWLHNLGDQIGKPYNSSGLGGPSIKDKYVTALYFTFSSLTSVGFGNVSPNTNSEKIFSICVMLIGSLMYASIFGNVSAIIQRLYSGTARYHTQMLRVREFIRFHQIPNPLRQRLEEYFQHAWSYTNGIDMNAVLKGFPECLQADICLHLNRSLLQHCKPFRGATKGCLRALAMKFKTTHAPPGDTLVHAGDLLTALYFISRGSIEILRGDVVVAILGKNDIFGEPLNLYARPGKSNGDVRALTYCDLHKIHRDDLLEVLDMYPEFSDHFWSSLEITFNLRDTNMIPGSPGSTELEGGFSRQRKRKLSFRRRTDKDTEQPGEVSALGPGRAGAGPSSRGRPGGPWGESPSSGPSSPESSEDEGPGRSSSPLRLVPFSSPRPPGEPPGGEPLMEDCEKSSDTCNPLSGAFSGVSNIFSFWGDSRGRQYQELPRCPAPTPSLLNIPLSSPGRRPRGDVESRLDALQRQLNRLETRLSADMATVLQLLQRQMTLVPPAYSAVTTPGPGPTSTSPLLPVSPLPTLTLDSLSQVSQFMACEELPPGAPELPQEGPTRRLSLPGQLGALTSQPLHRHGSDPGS

SMILES | hERG current change (%, negative = inhibition) at 10uM [%]
CCc1ccc(NC(=O)c2[nH]c(C)c(C(C)=O)c2C)cc1 | -1.42
Cc1ccc(NC(=S)N2CCN(Cc3ccccc3)CC2)cc1 | 15.6
Cc1ccc(NC(=O)c2ccc(-n3cncn3)c([N+](=O)[O-])c2)cc1 | -17.9
CN(c1ccc(C(=O)NCCCn2ccnc2)cc1)S(C)(=O)=O | 6.71
FC(F)(F)c1ccccc1-n1c(CN2CCCCC2)n[nH]c1=S | -27.4
Cc1ccccc1-n1nnnc1SCC(=O)N(C)C1CCS(=O)(=O)C1 (stereo not drawn) | 16.4
CCOc1ccc(NC2=NCC(=O)N2Cc2cccs2)cc1.Cl | -1.9
O=C(N/N=C/c1cc(Cl)ccc1O)C(=O)Nc1ccccc1OC(F)(F)C(F)F | 12
O=C(Nc1cc(Cl)ccc1-n1cncn1)c1cc(F)cc(F)c1 | -10.4
Cn1cccc1-c1cc(C(=O)N/N=C/c2cccc(O)c2)[nH]n1 | -7.31
O=C(CSCc1ccc(Cl)cc1)N1CCN(Cc2ccc3c(c2)OCO3)CC1 | -48.2
Cc1ccc(NC2=C/C(=N/S(=O)(=O)c3cccs3)c3ccccc3C2=O)cc1 | 4.44
Cc1cc(C)nc(N(C#N)C(C)C(=O)N(C)C)n1 (stereo not drawn) | 4.74
COCCCNC(=S)N1CCN(C)CC1 | -28.4
COc1ccc(C2C3=C(CCCC3=O)Nc3nc(SCc4ccc(C(=O)O)cc4)nn32)cc1OC (stereo not drawn) | -3.79
COc1ccc(C(CNC(=O)c2ccc(C)o2)N2CCOCC2)cc1 (stereo not drawn) | -5.54
COc1cccc(CNC(=O)COC(=O)c2cc([N+](=O)[O-])ccc2N2CCCC2)c1 | -56.9
O=C(Cc1ccc(F)cc1)N1CCN(c2ccc([N+](=O)[O-])cc2)CC1 | -69.5
Cc1c(CCOC(=O)C2C3CC4CC(C3)CC2C4)sc[n+]1CC(=O)c1ccc(Br)cc1.[Br-] (stereo not drawn) | -31.4

SMILES | hERG current change (%, negative = inhibition) at 10uM [%]
COCCCNC(=S)N/N=C/c1ccc2c(c1)OCO2 | 4.04
Cc1cc(C)n2nc(/C(C#N)=C/c3ccccn3)c(C#N)c2n1 | 29
Cc1cc(NS(=O)(=O)c2ccc(NC(=O)c3ccc(Br)o3)cc2)nc(C)n1 | 19.9
CCn1c(Cn2nnc(-c3ccccc3)n2)nnc1SCC(=O)Nc1ccc(N(C)C)cc1 | 19.1
O=C(Nc1c(C(=O)N2CCCCC2)cnn1-c1ccccc1)c1ccccc1F | 19
COc1cc2c(cc1OC)-c1nnnn1C(C)(C)C2 | 3.44
Cc1cc(NC(=O)c2cc(-c3ccccn3)nc3ccc(Br)cc23)no1 | 24.9
Cc1c(OCC(=O)C(C)(C)C)ccc2c3c(c(=O)oc12)CCCC3 | 13.8
Cc1ccccc1NC(=O)Cn1cccc1 | 7.2
O=C(CNC(=O)c1ccc(Br)o1)NNC(=O)c1ccccc1O | -2.55
O=C(c1ccco1)N1CCN(C(=O)N2c3ccccc3Sc3ccccc32)CC1 | -16.4
CCCCS(=O)(=O)/C=C\C1C2C=CC(C2)C1S(=O)(=O)CCCC (stereo not drawn) | -14.5
CC1CCc2nc(NC(=O)C3CCCO3)sc2C1 (stereo not drawn) | -3.97
O=C1OCCC1Sc1nnc(-c2ccco2)n1-c1ccccc1 (stereo not drawn) | 15.8
CC(C)(C)C(=O)NCCN1CCN(C(=O)C(C)(C)C)CC1 | -14.7
CSc1nnc(Cc2sc(-c3ccccc3)nc2-c2ccccc2)o1 | 12.4
COc1ccc(/C=C(/NC(=O)c2ccc(OC)cc2)C(=O)NCCc2c[nH]c3ccccc23)cc1 | -28.8
COC(=O)c1[nH]c2ccc(F)cc2c1NS(=O)(=O)c1ccc(F)c(C)c1 | 0.344
COc1ccccc1C(=O)NC(C)c1nc2ccccc2[nH]1 (stereo not drawn) | 17.9

SMILES | hERG current change (%, negative = inhibition) at 10uM [%]
CCN(CC)CCNC(=O)c1cc(-c2ccc(Br)s2)nc2ccccc12 | -9.2
Cc1sc2nc(CN(C(=O)c3cccs3)C3CCCC3)[nH]c(=O)c2c1C | -6.27
O=C1c2ccccc2C(=O)C1(O)O | 19.9
N#Cc1ccc(NC(=O)c2cc(S(=O)(=O)N3CCOCC3)ccc2N2CCCC2)cc1 | -80.4
Cc1ccnc(NC(=O)/C=C/c2ccccc2Cl)c1 | 1.32
O=C(NCC1COc2ccccc2O1)c1cn(Cc2ccc(F)cc2)nn1 (stereo not drawn) | -1.37
COCCCNC(=O)c1c(N)n(/N=C/c2cccnc2)c2nc3ccccc3nc12 | 10.1
Cc1ccc(NC2c3ccccc3C(=O)N2c2cccnc2)cc1 (stereo not drawn) | -21.5
CC(NC(=O)C(NS(=O)(=O)c1cccs1)C(C)C)c1ccc(S(N)(=O)=O)cc1 (stereo not drawn) | 5.75
O=C1Nc2ccccc2OC1CC(=O)N1CCN(c2cccc(C(F)(F)F)c2)CC1 (stereo not drawn) | -44.2
COc1ccc(C)cc1NC(=O)CSc1nnc(COc2ccccc2)n1Cc1ccco1 | -9.46
C[C@H](NC(=O)c1ccco1)C(=O)NCc1cccs1 | 8.43
C=CCc1cc(Cl)ccc1OCCNCCN1CCOCC1.O=C(O)C(=O)O | -46.5
O=C(NC1CCCC1)c1ccc(CSc2nc3ccncc3n2Cc2ccc(F)cc2)cc1 | -40.7
CCN(CC)C(=O)c1cccc2nc3ccccc3nc12 | 7.06
COCCCNC(=S)NNC(=O)c1cc(-c2ccncc2)nc2ccccc12 | 0.914
O=C1CCCC2=C1C1(O)C(=O)c3ccccc3C1(O)O2 (stereo not drawn) | 3.16
CCN(C(=O)c1ccc(Br)cc1)c1ccccc1 | -20.2
CCOc1ccccc1N1CN(C2CCCCC2)CNC1=S | 14.2

Source: PMC4336329 (PLoS ONE, 2015)
